From article PMC12604968, “Mutant NPM1 modulates PDCD4 ubiquitination degradation and facilitates leukemogenesis” (iScience, 2025)
Results are given in words; binding and its absence hold for the method and conditions named. For part of these data: Binding seen in cells or lysates may run through a third protein. Some binding calls cover weakened binding; strength is not graded here. For part of these data: Sequences can lack the tags named with a protein.

By UniProt entry, the sequences of proteins in these tests, tags left out.
UniProt Q09028: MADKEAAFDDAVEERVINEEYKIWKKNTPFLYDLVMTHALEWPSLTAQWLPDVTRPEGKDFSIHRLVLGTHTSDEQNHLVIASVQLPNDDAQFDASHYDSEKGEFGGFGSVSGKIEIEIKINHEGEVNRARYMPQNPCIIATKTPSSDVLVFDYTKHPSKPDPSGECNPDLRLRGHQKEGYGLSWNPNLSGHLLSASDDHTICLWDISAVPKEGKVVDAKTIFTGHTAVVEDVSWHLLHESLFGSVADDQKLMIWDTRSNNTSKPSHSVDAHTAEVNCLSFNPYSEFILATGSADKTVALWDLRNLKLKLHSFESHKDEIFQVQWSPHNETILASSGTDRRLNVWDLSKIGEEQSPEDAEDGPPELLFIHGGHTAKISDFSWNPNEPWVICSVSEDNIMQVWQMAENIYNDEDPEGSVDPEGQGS

Key:
[1] = biological target: T1, GST-PDCD4 recombinant protein (human, UniProt Q53EL6 1-469); assay: pull-down; GST-PDCD4 immobilised on Glutathione Sepharose 4FF beads, incubated with cell lysate; western blot of the pull-down samples; only the target purified
T1 construct: PDCD4 (programmed cell death 4), human, amplified from cDNA of HEK293T cells and cloned into pGEX-6P-1; pGEX-6P-1 is known to add GST at the N-terminus; also called GST-tagged PDCD4; source: E. coli BL21 (DE3), purified (Glutathione Sepharose 4FF)
T1 sequence (looked up): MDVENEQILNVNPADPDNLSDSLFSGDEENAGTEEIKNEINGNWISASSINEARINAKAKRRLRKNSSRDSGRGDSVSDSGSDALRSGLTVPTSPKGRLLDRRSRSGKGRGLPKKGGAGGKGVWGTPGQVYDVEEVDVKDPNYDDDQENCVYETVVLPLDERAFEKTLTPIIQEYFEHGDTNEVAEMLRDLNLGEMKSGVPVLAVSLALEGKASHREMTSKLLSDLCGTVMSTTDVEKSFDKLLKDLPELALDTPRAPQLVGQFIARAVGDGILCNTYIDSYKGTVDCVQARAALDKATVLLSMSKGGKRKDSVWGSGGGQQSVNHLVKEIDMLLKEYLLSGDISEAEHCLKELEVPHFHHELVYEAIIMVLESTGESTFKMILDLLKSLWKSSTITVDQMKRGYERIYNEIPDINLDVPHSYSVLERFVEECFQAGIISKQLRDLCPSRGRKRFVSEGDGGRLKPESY

[2] = biological target: T2, PDCD4, endogenous (human (endogenous; cell line not stated, all cell lines of the paper are human)) (UniProt Q53EL6); assay: co-IP; endogenous proteins, whole cell lysates, protein G Dynabeads, anti-PDCD4 antibody, IgG as control; western blot
T2 sequence: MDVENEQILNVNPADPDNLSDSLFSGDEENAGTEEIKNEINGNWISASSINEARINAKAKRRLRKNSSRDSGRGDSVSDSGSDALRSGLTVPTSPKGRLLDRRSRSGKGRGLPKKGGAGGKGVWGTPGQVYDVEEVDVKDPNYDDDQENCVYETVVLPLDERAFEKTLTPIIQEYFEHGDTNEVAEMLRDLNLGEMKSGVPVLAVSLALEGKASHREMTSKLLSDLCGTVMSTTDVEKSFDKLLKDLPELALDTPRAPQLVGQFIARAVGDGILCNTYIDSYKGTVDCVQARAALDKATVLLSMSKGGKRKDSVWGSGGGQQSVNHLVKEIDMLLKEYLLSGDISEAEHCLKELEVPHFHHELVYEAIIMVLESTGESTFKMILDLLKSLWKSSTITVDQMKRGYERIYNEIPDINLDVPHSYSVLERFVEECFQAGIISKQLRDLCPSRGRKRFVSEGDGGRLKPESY

HA-tagged PDCD4 (human) = biological target: T3, HA-tagged PDCD4 (human) (UniProt Q53EL6); assay: co-IP; HA-tagged PDCD4 or PDCD4-ΔNoLS overexpressed in HEK-293T cells; lysate immunoprecipitated with anti-HA beads; western blot with anti-HA and anti-RBBP4
T3 sequence: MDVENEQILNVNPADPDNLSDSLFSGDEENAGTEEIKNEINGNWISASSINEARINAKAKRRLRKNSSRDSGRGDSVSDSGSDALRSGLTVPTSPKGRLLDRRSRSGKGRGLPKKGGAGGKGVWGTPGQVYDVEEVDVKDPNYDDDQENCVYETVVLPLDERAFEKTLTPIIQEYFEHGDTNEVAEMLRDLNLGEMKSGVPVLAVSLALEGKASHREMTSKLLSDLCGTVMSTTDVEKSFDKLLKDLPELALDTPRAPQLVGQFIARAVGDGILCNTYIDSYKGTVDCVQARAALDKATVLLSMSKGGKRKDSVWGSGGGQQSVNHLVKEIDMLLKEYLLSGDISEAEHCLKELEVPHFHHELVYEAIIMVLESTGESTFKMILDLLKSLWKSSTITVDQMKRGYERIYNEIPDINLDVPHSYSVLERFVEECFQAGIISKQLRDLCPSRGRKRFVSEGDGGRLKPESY

[3] = biological target: T4, Biotin-PDCD4-NoLS peptide (human); assay: pull-down; biotin-tagged PDCD4-NoLS peptide immobilised on streptavidin-conjugated beads, incubated with AML cell lysate; western blot; only the target purified
T4 sequence (peptide, biotin on the N-terminus): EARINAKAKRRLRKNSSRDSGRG

[4] = biological target: T2, PDCD4, endogenous (human (endogenous; cell line not stated, all cell lines of the paper are human)); assay: co-IP; PDCD4 and RBBP4; IgG as negative control; cells and antibody not stated
[5] = biological target: T1, GST-PDCD4 recombinant protein; assay: pull-down; GST-PDCD4 immobilised on Glutathione Sepharose 4FF beads, incubated with purified His-tagged proteins; SDS-PAGE, Coomassie blue; both purified
GFP-PDCD4-ΔNT (human) = biological target: T5, GFP-PDCD4-ΔNT (human) (UniProt Q53EL6); assay: condition: 50 μM purified NPM1-NT, 1:1 dilution series of 16 samples; MST; purified NPM1-NT (50 μM, 16-sample 1:1 dilution series) as ligand, GFP-PDCD4 constructs in HEK293T RIPA lysate as fluorescent targets; Monolith NT.115; only the binder purified
T5 sequence: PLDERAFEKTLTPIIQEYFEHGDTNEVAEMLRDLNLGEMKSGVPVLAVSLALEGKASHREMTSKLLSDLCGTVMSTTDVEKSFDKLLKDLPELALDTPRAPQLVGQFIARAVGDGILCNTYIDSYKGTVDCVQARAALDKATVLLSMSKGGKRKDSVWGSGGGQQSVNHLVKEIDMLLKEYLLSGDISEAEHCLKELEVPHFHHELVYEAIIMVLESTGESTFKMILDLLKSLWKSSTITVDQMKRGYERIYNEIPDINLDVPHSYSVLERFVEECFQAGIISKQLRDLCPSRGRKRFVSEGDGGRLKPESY

GFP-PDCD4-NT (human) = biological target: T6, GFP-PDCD4-NT (human) (UniProt Q53EL6); assay: MST; purified NPM1-NT (50 μM, 16-sample 1:1 dilution series) as ligand, GFP-PDCD4 constructs in HEK293T RIPA lysate as fluorescent targets; Monolith NT.115; only the binder purified
T6 sequence: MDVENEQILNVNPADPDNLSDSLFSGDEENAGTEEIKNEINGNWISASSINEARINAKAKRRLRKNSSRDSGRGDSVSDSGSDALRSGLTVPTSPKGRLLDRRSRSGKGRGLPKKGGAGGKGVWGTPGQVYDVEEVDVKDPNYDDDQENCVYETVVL

How did the binding [1] turn out when “NPM1 (Nucleophosmin 1), endogenous (from UniProt P06748 1-294)” was run?
Its binding is “binds”.

And the binding [2]?
The binding was “binds”.

Which binding [1] does the source give for “RBBP4, endogenous (from UniProt Q09028 1-425)” here?
The binding was “binds”.

And the binding (HA-tagged PDCD4 (human))?
Its binding is “binds”.

And the binding [3]?
Its binding is “binds”.

What about the binding [4] of the same molecule?
Its binding is “binds”.

How did the binding [5] turn out when “purified his-tagged RBBP4 protein (from UniProt Q09028 1-425)” was run?
Its binding is “binds”.

B1: His-tagged NPM1 N-terminal domain (NPM1-NT, aa 1-117) (domain or fragment, human, UniProt P06748 1-117, looked up)
chain: MEDSMDMDMSPLRPQNYLFGCELKADKDYHFKVDNDENEHQLSLRTVSLGAGAKDELHIVEAEAMNYEGSPIKVTLATLKMSVQPTVSLGGFEITPPVVLRLKCGSGPVHISGQHLV
notes: source: E. coli BL21 (DE3), purified (Ni-NTA)
What does the source list for B1?
binding (GFP-PDCD4-ΔNT (human)): no binding; binding (GFP-PDCD4-NT (human)): binds
